According to publication PMC10281575, “PfCRT mutations conferring piperaquine resistance in falciparum malaria shape the kinetics of quinoline drug binding and transport” (PLOS Pathogens, 2023):
“And” between values parts separate entries of the source, which are not always exact repeats. Equal values may be shown once. This continues a long series; more values of the same kind are listed elsewhere.

Columns and labels:
PfCRT^Dd2_F145I [1] = target: T1, PfCRT^Dd2_F145I (Plasmodium falciparum, UniProt Q8IBZ9, A220S/F145I/I356T/K76T/M74I/N326S/N75E/Q271E/R371I); test: Competition kinetics of drug transport (radiolabeled substrate plus cold inhibitor), PfCRT^Dd2_F145I-expressing oocytes; assay type: cell-based
T1 construct: expressed in transfected cells; host or cells: Xenopus laevis oocytes injected with in vitro transcribed RNA (pSP64T)
T1 sequence (Q8IBZ9 1-424 M74I/N75E/K76T/F145I/A220S/Q271E/N326S/I356T/R371I): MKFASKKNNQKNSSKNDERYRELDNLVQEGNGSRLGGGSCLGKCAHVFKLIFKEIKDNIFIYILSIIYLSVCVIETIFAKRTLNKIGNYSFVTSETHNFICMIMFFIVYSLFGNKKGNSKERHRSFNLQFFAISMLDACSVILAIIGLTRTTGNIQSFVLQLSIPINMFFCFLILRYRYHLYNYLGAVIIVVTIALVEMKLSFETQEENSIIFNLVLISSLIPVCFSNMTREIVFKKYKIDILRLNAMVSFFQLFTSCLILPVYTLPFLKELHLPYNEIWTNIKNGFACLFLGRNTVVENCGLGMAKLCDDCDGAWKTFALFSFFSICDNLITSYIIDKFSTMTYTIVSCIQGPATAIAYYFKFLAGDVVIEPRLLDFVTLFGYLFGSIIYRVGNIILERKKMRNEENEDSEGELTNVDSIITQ
Experimental: To further characterize the kinetic relationship between CQ and PPQ, we performed a series of competition reactions. To this end, water-injected oocytes and PfCRT-expressing oocytes were incubated in medium containing one of seven concentrations of radio-labeled CQ and one of six concentrations of cold PPQ for 60 min before the amount of radio-labeled CQ uptake was determined. The rate of PfCRT-mediated CQ uptake was calculated for each condition by subtracting the corresponding value obtained for water-injected oocytes from those of PfCRT-expressing oocytes. The results were analyzed as a function of the CQ concentration (Fig 4A) and 16 different models of substrate competition were globally fit to the data by the least-squares method, using Python. The models were ranked, according to their Akaike information criterion difference (ΔAICC) and their Akaike weight (Fig 4B), with the most plausible model being the one with the lowest AICC (ΔAICC = 0) and the highest Akaike weight.
A complementary set of experiments was undertaken to investigate the kinetic mechanism by which PfCRT^Dd2_F145I accepts CQ and PPQ (Fig 6). […] These included a global fit of the substrate competition data to the 16 kinetic models (Fig 6), analysis of the secondary plots (Vmax,app and Vmax,app/KM,app as a function of the inhibitor concentration) (Fig 7A), a fractional velocity plot analysis (Fig 7B) and a comparison of the experimental data with the modelled data using the noncompetitive inhibition equation (Fig 7C to 7F). […] The fractional velocity plot illustrated the partial character of the noncompetitive inhibition mechanism by yielding a partiality factor β^CQ = 0.31 ± 0.04, by which PPQ reduces the transport velocity of CQ (Fig 7B). […] A 3D model of the kinetics between PfCRT^Dd2_F145I, CQ and PPQ, and analyses of the residuals as a function of substrate and inhibitor concentrations confirmed that the model was also an appropriate explanation for the mutant transporter (Fig 7C to 7F).
(§1) Drug transport assays were performed as previously described. Briefly, measurements of radiolabeled drug uptake were made over 1 h, unless otherwise specified. […] Where specified, one or more unlabeled drugs were also present at the indicated concentrations. The direction of drug transport in the assays is from the extracellular medium (pH 6) into the oocyte cytosol (pH 7.2), which corresponds to the efflux of CQ or PPQ from the acidic digestive vacuole (pH 5.2) into the parasite cytosol (pH 7.2). The uptake assays were terminated by removing the oocytes from the reaction medium and washing them three times with 2 mL of ice-cold ND96 buffer. Each oocyte was transferred to a separate scintillation vial and lysed by the addition of 200 μL of a 5% SDS solution. The radioactivity in the sample was measured using a liquid scintillation analyser Tri-Carb 4910 TR (PerkinElmer). Water-injected oocytes were analyzed in parallel as a negative control. The buffer from each condition was measured in duplicate in parallel to each experiment to transform counts per minute into pmol of drug. Drug uptake attributable to PfCRT was determined by subtracting the background uptake from water-injected oocytes from that of PfCRT-expressing oocytes. In all cases, at least three independent experiments were performed on oocytes from different frogs, and for each condition in an experiment, measurements were made from 10 oocytes per treatment.
The following equations were adopted from Segel (1993), and the reader is referred to that text for the assumptions made in the author’s approach in the derivation of each equation [31]. The concentration of substrate is denoted as [S1] and the concentration of the inhibiting substrate is denoted as [S2]. KS1 and KS2 are the dissociation constants for the respective substrate-protein complexes.
Analyses of the kinetic data were performed using SigmaPlot version 13.0 and Python. […]

PfCRT^Dd2_F145I [2] = target: T1, PfCRT^Dd2_F145I; test: Verapamil inhibition of PfCRT-mediated CQ and PPQ transport in oocytes, PfCRT^Dd2_F145I; assay type: cell-based; settings: individual replicates (S3 Fig)
Experimental: In all cases, the PfCRT-mediated CQ and PPQ transport was inhibited in the presence of 100 μM verapamil (S3 Fig).
as §1
Supplementary file ppat.1011436.s006.tif: S3 Fig Verapamil inhibits PfCRT-mediated transport of CQ and PPQ. […] Left panels, data is shown as individual biological replicates (coloured symbols) overlaid onto bars representing the Mean ± S.E.M. (error bars). A one-tailed Student’s t-test was performed between untreated (no VP) and treated (+ 100 μM VP) samples, and the obtained p values are shown. Right panels, the uptake in VP-treated samples was divided by the uptake in their corresponding untreated pairs and subtracted from 100% to get the percentage of uptake inhibition mediated by the presence of 100 μM verapamil in the extracellular medium. Error bars are S.E. (TIF) Click here for additional data file.

## CCN(CC)CCCC(C)Nc1ccnc2cc(Cl)ccc12 (centres unmarked) [CQ, chloroquine]
PfCRT^Dd2_F145I [1]; 10 µM CQ, 50 µM PPQ
  PfCRTDd2_F145I-mediated CQ transport: 0.41 pmol oocyte-1 h-1
PfCRT^Dd2_F145I [1]; 50 µM CQ, 500 µM PPQ
  PfCRTDd2_F145I-mediated CQ transport: 2.17 pmol oocyte-1 h-1
PfCRT^Dd2_F145I [1]; 200 µM CQ, 0 µM PPQ
  PfCRTDd2_F145I-mediated CQ transport: 11.4 pmol oocyte-1 h-1
PfCRT^Dd2_F145I [1]; 200 µM CQ, 500 µM PPQ
  PfCRTDd2_F145I-mediated CQ transport: 6.33 pmol oocyte-1 h-1
PfCRT^Dd2_F145I [1]; 300 µM CQ, 0 µM PPQ
  PfCRTDd2_F145I-mediated CQ transport: 18.53 pmol oocyte-1 h-1
PfCRT^Dd2_F145I [1]; 300 µM CQ, 500 µM PPQ
  PfCRTDd2_F145I-mediated CQ transport: 6.83 pmol oocyte-1 h-1
PfCRT^Dd2_F145I [1]; 400 µM CQ, 0 µM PPQ
  PfCRTDd2_F145I-mediated CQ transport: 22.31 pmol oocyte-1 h-1
PfCRT^Dd2_F145I [1]; 500 µM CQ, 0 µM PPQ
  PfCRTDd2_F145I-mediated CQ transport: 20.2 pmol oocyte-1 h-1
PfCRT^Dd2_F145I [1]; 500 µM CQ, 200 µM PPQ
  PfCRTDd2_F145I-mediated CQ transport: 10.24 pmol oocyte-1 h-1
PfCRT^Dd2_F145I [2]; 50 µM CQ + 100 µM VP
  PfCRTDd2_F145I-mediated CQ transport: 2.910 pmol oocyte-1 h-1 and 2.290 pmol oocyte-1 h-1 and 0.440 pmol oocyte-1 h-1 and 2.900 pmol oocyte-1 h-1 and 0.840 pmol oocyte-1 h-1
PfCRT^Dd2_F145I [2]; 50 µM CQ
  PfCRTDd2_F145I-mediated CQ transport: 3.800 pmol oocyte-1 h-1 and 4.280 pmol oocyte-1 h-1 and 2.840 pmol oocyte-1 h-1

## Clc1ccc2c(N3CCN(CCCN4CCN(c5ccnc6cc(Cl)ccc56)CC4)CC3)ccnc2c1 [PPQ, piperaquine]
PfCRT^Dd2_F145I [1]; 10 µM PPQ, 400 µM CQ
  PfCRTDd2_F145I-mediated PPQ transport: 10.41 pmol oocyte-1 h-1
PfCRT^Dd2_F145I [1]; 50 µM PPQ, 400 µM CQ
  PfCRTDd2_F145I-mediated PPQ transport: 21.35 pmol oocyte-1 h-1 and 27.84 pmol oocyte-1 h-1
PfCRT^Dd2_F145I [1]; 100 µM PPQ, 0 µM CQ
  PfCRTDd2_F145I-mediated PPQ transport: 56.31 pmol oocyte-1 h-1
PfCRT^Dd2_F145I [1]; 100 µM PPQ, 400 µM CQ
  PfCRTDd2_F145I-mediated PPQ transport: 60.06 pmol oocyte-1 h-1 and 41.63 pmol oocyte-1 h-1
PfCRT^Dd2_F145I [1]; 200 µM PPQ, 400 µM CQ
  PfCRTDd2_F145I-mediated PPQ transport: 76.13 pmol oocyte-1 h-1 and 65.94 pmol oocyte-1 h-1
PfCRT^Dd2_F145I [1]; 300 µM PPQ, 0 µM CQ
  PfCRTDd2_F145I-mediated PPQ transport: 91.14 pmol oocyte-1 h-1
PfCRT^Dd2_F145I [1]; 300 µM PPQ, 400 µM CQ
  PfCRTDd2_F145I-mediated PPQ transport: 72.65 pmol oocyte-1 h-1 and 78.11 pmol oocyte-1 h-1
PfCRT^Dd2_F145I [1]; 400 µM PPQ, 0 µM CQ
  PfCRTDd2_F145I-mediated PPQ transport: 105.11 pmol oocyte-1 h-1
PfCRT^Dd2_F145I [1]; 400 µM PPQ, 400 µM CQ
  PfCRTDd2_F145I-mediated PPQ transport: 66.95 pmol oocyte-1 h-1
PfCRT^Dd2_F145I [1]; 500 µM PPQ, 0 µM CQ
  PfCRTDd2_F145I-mediated PPQ transport: 79.05 pmol oocyte-1 h-1
PfCRT^Dd2_F145I [1]; 500 µM PPQ, 50 µM CQ
  PfCRTDd2_F145I-mediated PPQ transport: 119.38 pmol oocyte-1 h-1
PfCRT^Dd2_F145I [1]; 500 µM PPQ, 200 µM CQ
  PfCRTDd2_F145I-mediated PPQ transport: 120.41 pmol oocyte-1 h-1
PfCRT^Dd2_F145I [1]; 500 µM PPQ, 400 µM CQ
  PfCRTDd2_F145I-mediated PPQ transport: 83 pmol oocyte-1 h-1 and 98.45 pmol oocyte-1 h-1
PfCRT^Dd2_F145I [2]; 50 µM PPQ + 100 µM VP
  PfCRTDd2_F145I-mediated PPQ transport: 7.33 pmol oocyte-1 h-1 and 14.31 pmol oocyte-1 h-1 and 22.24 pmol oocyte-1 h-1 and 5.89 pmol oocyte-1 h-1 and 25.58 pmol oocyte-1 h-1
PfCRT^Dd2_F145I [2]; 50 µM PPQ
  PfCRTDd2_F145I-mediated PPQ transport: 75.44 pmol oocyte-1 h-1 and 27.59 pmol oocyte-1 h-1 and 75.68 pmol oocyte-1 h-1 and 39.58 pmol oocyte-1 h-1 and 36.72 pmol oocyte-1 h-1 and 42.92 pmol oocyte-1 h-1
